Measured values taken from the supplement of paper PMC3334620.
Whole data set: some 33,000 sequences, median “E-score (-0.5 to 0.5)” near -0.056, cut for the highest 2% near 0.38. The list shows a part of the results.

The sequences below were run against Stb4 (UniProt P50104) (assay: PBM E-score (8-mer binding enrichment) (E-score (-0.5 to 0.5)); higher = stronger / more preferred TF binding; most listed sequences are background and not binding sites). Settings: protein concentration: 200 nM; construct: GST-DNA-binding domain.
In short: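 For each ungapped eight-base word taken together with its reverse complement, the Universal PBM Analysis Suite assigned an E-score. Binding data came from GST-tagged yeast transcription factors, applied at about 100-200 nM, on universal all-10-mer Agilent arrays made double-stranded by primer extension. Fluorescent anti-GST marked bound protein, and scans were normalised with masliner.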

Sequence	PBM E-score
AAGGGGGC	-0.209
AGTGAAGC	-0.163
GGTAAACA	0.12
AGCTGAAC	-0.119
AAATCTGG	0.0311
AACGGTAT	-0.0638
CGCGGATC	0.263
CGCACAGC	0.0145
AATGGGTA	-0.0523
GCCCCTCC	0.204
AGGACTTA	-0.173
CCTGCATA	0.0335
CCCAGTAC	-0.185
AATGTGCC	0.103
GGGAGACA	0.146
CCGCGAGC	0.173
GCGTTACC	-0.00688
GTGTCGCA	-0.0287
GAGTAGCC	-0.00602
TCCTTTAA	0.0266
CCCGCGTC	0.25
CGAGTGAC	-0.0128
ACTGTGGG	-0.269
ATATAATG	-0.163
CGTAGATA	-0.00493

Sequence	PBM E-score
CCGGGCAA	0.223
AGATTGCA	0.0801
GCGACACA	-0.0947
ATCGTAGG	-0.21
CACCAGTC	-0.162
GGTACCTA	-0.0355
CGATTAGA	-0.0351
GTGGTGGA	-0.0396
CCCACAGA	-0.234
CGGATAGA	0.454
ATCAGATA	-0.209
ATCTTAGG	-0.179
AACCTCGT	-0.062
AGACTAGG	-0.205
CAAGCGTG	-0.256
TCTATACA	-0.163
GACTAAAC	-0.113
ACCCCCCA	-0.245
CGACTGAA	0.0189
CTGTACTC	-0.298
ACAATGGA	0.0158
ACGCTTCC	0.183
CGCTCCGA	0.346
GGTGGCCA	-0.0956
GAAAGATA	0.0434

Sequence	PBM E-score
CGTACTAA	-0.0489
AGTGGGCG	-0.066
AATCCGAC	0.346
GGGCCATA	0.123
CTTCGCAA	-0.193
TATAGCGA	-0.106
ACGGATAC	0.407
CACCAGCC	0.131
CTTTGACA	-0.0553
ACCGGTAG	0.0233
AAACATGA	-0.144
TCTCTTAA	-0.0883
AAAGTGGC	-0.102
GATGGGTA	-0.0713
AGTGTCCC	0.09
ATCAGGTC	-0.119
GCTCATAA	0.0116
AATAATCG	0.0208
CCGTCCCA	-0.0188
ATGCTCGA	-0.139
ATGATAAT	-0.0531
GGCCTGGA	-0.279
CACAAGTC	-0.187
AGCTTTAC	-0.0918
AGGAAGAA	-0.278

Sequence	PBM E-score
CGTTGACA	-0.231
GAAAGAAC	0.0241
ACGGGGAC	0.111
AGTGAGAG	-0.141
CAGAGACG	-0.159
GCCCAGCA	-0.106
ACCGCGGA	0.335
ACTACCAA	-0.131
AGATAACC	0.0152
CGGTTGTC	0.162
GCGACTAA	-0.108
ATATCTAC	0.0331
GCCTGTAA	-0.15
ATCTTCCA	-0.137
AGTTATAG	-0.257
ATTACCTA	-0.0235
AGCTCGAC	-0.0952
CCCAGGCC	-0.0781
CGGGTAGC	0.37
ATATAGCC	0.183
CTTGGCAC	-0.236
GCCAGAAC	-0.0133
ACGTTTGA	0.0329
CTTGGCCA	-0.188
GACTGGCA	-0.187

Sequence	PBM E-score
CAATTGGG	-0.223
AGCAATCG	-0.087
CTGGGCGC	-0.274
AGGATTGA	-0.128
AGAACCAA	-0.118
ACCCAATC	0.0159
ATGGCCGG	0.189
CCCGCTCA	0.0831
AGAAGGAG	-0.159
AACGCCAA	0.0304
GAGTGATA	-0.0622
CATTCCAG	-0.359
GGAACCCA	0.15
AGTGTGGC	-0.0938
ATGTGGCC	-0.095
CTCTCTGA	-0.279
CTAACCGA	0.401
CATTGTTA	-0.256
CGCATGGA	-0.105
CATTATGG	-0.0751
CCTTCGCG	0.019
ATCTTGTC	-0.145
ATTGCGCA	-0.0152
ATTGGTTC	0.0474
ATACGGTC	0.129

Sequence	PBM E-score
GGACTCGA	0.113
TACCACGA	-0.229
CGAAGCTC	0.183
CAAAACCG	0.0173
GATCGAGA	-0.0708
AAGCGAGG	-0.0198
AGACAGAG	-0.271
ATGCAGCC	-0.0412
CGGAATGA	0.342
CGACACAC	0.0505
AGGGAAAT	-0.211
CGGCAACC	0.33
CAGTCTAC	-0.176
ACTACTTC	0.0682
TGCTCTAA	-0.331
GATATATA	0.0492
CGCTATGC	-0.102
AGGCGCAG	-0.33
ACACCACC	0.0149
GGCTTCTA	-0.0329
ATTCTGTG	0.0711
GCCATTCC	0.127
TAACATAA	0.119
GACCGCTA	0.0181
GAATGCTA	0.0561

Sequence	PBM E-score
CCTTCATC	-0.0404
GGTATAAA	0.177
AAAAAATT	0.0787
AGTCCCAG	-0.193
GGGCCGCA	0.134
CCGTTAAC	0.198
CTCCTTGA	-0.218
AGTTGGAC	-0.0261
ACGAGTAT	-0.123
CATGTTGG	-0.198
GGCAATCA	0.109
ACCAAGCT	-0.232
CACCAGGG	-0.367
AAATGAAG	-0.112
ACAAACCA	-0.228
AACGCGCA	-0.174
ACTGCTGA	-0.238
GCCATCTA	-0.157
CCTGTAGA	-0.0477
AGAATAAG	-0.0478
AGATCAAA	-0.0539
ATACCCTG	-0.0928
CTGAGTAA	-0.226
ACTCCACG	-0.0643
ATAATAAC	0.0397

Sequence	PBM E-score
CTAAGCCA	-0.333
TGCCCAAA	-0.0899
AACCTAAC	0.0725
AAGGTGGG	-0.162
GGCATTTA	-0.00929
CCAGATAA	-0.112
ACCCTGCG	-0.0706
AAGTGCCT	-0.228
ATGTGTAC	-0.132
ATGAGCTG	-0.138
AGCACTAC	-0.306
CAAGCAGA	-0.0191
ATAGCGCC	0.0725
ATTAGCTA	-0.154
CAACCGGC	0.218
ATTCGCCC	0.0226
AAACGGAA	0.367
GCGGAGGA	-0.0295
CCTATGGA	-0.103
ACGCGTGG	-0.00971
CAACTAAC	0.163
CCAGACGC	-0.248
CCTGGTGC	-0.133
AGGTCAGA	-0.078
TTAGTCAA	-0.165

Sequence	PBM E-score
ATGCTCGG	0.404
CTCCCGGC	0.321
AAGTGGAT	0.00152
AAACGTCT	-0.115
CGTTGTCA	-0.153
AGGCTTTG	-0.113
CCGTGACA	0.178
CGGGTGGC	0.258
GATCTGTA	0.0472
AGGTCATG	-0.121
GTATCTGA	-0.0112
CGTTGAAG	-0.0863
AGTCAGCA	-0.248
ACAGGGGA	-0.122
TACGTGGA	-0.171
CCTTGTCC	-0.029
CTCTGCTC	0.036
AGCTTAAT	0.0871
CCTCTAGA	-0.179
ATACTTGC	-0.211
GCGAGTAC	-0.0817
CCGAGGCC	0.436
ATACTTCC	0.197
CAACTGTC	-0.175
GAATACTC	0.109

Sequence	PBM E-score
ATACGAGA	-0.282
ACGTGGGG	-0.142
GACTGGGC	-0.165
GTCGATGA	-0.0648
CGATCTGC	0.134
GCGAGGTA	-0.124
ATTAGTAG	-0.176
GACTATCC	0.173
CAGAGACA	-0.348
AACAACTT	-0.165
GCCACGGA	0.24
CTCCCATC	-0.0432
ACACCTCT	-0.165
GAATTAGA	0.00742
ACACTTTG	-0.0712
ACAACTTC	0.0333
CGGCCTCA	0.107
AGCTCGTC	-0.0888
TTATGAAA	-0.0132
GCTGCAAA	-0.0614
ATTAGACC	-0.0535
CCGCAAAA	0.157
CGGGCCCA	0.11
AGGACCCC	-0.0529
CCGATTCA	0.194

Sequence	PBM E-score
CAACGACC	0.0652
GTGGGAAA	0.0405
CTCACCCA	0.00764
CCGGGTAC	0.375
TGCTACCA	-0.216
CTACACTC	-0.0924
TAGCACGA	-0.0924
ACCTCTTG	0.0452
AACCCGAA	0.387
CACTCCGG	0.267
CAATCCTG	-0.213
ATGGCTGA	-0.133
CGCCGGAC	0.146
AATCGAAG	-0.00187
CCGATGCC	0.275
ATTTGCGG	0.194
TAGCGAGA	-0.15
AGCCTAGC	0.014
AACCCTCT	-0.311
CCGCGTCA	0.0442
AGACCCGA	0.419
GAGGTCCC	0.112
ATATTACC	0.00212
AATTATCG	0.0106
TGCGCACA	-0.0208

Sequence	PBM E-score
TACTAGTA	-0.0719
AATATAGC	-0.0498
AGAAGAAA	0.00687
GCTAGCAA	-0.0763
CGCGGGGC	0.173
GAGTTCGA	-0.0351
AATCGGGG	0.229
GCTCTCGA	-0.314
ACATAGGA	-0.114
ACTAGAGC	-0.272
CAGCCGCC	0.234
AACGGCGT	-0.0427
CGACTTAG	0.0271
AGTACGAG	0.0759
GCTAACTA	0.00043
GCCCTAAA	-0.273
ACTCTTCG	0.0611
GCCCCTTA	-0.0795
ACTAACAT	0.0255
ACCAAACG	-0.136
ACTCCAGT	-0.173
GAGTTTAC	0.22
CTACTGTC	-0.141
CGCGACTC	-0.0117
TATAGAGA	-0.308

Sequence	PBM E-score
CGTGACAC	0.0877
AGCAGATG	-0.381
CCATTTCA	-0.422
GCAACGAC	0.0391
CTCATGTA	0.00334
AATCGAAA	-0.0544
AAAGCGGG	-0.0396
CAAGAGTA	-0.0811
CCGACTCA	0.245
AGTTTGTA	-0.0234
CGATCGGA	0.322
GAGACCAC	-0.15
ATACCAGC	-0.121
AGGTTGAT	-0.173
CGTATTCA	-0.0809
ATATCGAC	-0.0133
CGATTACG	-0.0587
ATTTGAAG	-0.006
GACCTACC	-0.0914
CGTAGAAA	0.0457
GAAACTTA	0.00294
CAGTCGCC	-0.0528
TGAACCCA	-0.137
AGTTTTTA	-0.166
AGATTCAT	-0.129

Sequence	PBM E-score
AGGAAGCA	-0.109
CAAGTGGA	-0.165
CCTGAGGA	-0.142
AGCCGGAT	0.396
CGTACTAC	0.0682
CACAACAA	-0.101
AATCTGGT	0.106
AAACTTTA	-0.0852
AAGTATTA	-0.128
GACCAAAC	0.0124
GCTCAGCA	-0.172
TAGTCCGA	0.296
ACACCCGC	0.164
ACCCCTAC	-0.188
AATAGGTG	-0.0948
AGCCCTAT	-0.192
CTTACACC	-0.17
AAAAACAT	-0.154
CTTGGACA	-0.0873
